# Laboratory results reported in article PMC6919601, “Identification of Plasmodium dipeptidyl aminopeptidase allosteric inhibitors by high throughput screening” (PLoS ONE, 2019).
# Where “and” joins values, the source holds several entries; their conditions need not be identical. Identical values can stand only once. In all, about 110,000 compounds went through this assay and about 230 (0.21%) showed an effect of 50% or more. The list shows a part of the results.
# Biological target: DPAP1 (Plasmodium falciparum, UniProt Q8IIJ9)
# Sequence (Q8IIJ9 whole entry, looked up): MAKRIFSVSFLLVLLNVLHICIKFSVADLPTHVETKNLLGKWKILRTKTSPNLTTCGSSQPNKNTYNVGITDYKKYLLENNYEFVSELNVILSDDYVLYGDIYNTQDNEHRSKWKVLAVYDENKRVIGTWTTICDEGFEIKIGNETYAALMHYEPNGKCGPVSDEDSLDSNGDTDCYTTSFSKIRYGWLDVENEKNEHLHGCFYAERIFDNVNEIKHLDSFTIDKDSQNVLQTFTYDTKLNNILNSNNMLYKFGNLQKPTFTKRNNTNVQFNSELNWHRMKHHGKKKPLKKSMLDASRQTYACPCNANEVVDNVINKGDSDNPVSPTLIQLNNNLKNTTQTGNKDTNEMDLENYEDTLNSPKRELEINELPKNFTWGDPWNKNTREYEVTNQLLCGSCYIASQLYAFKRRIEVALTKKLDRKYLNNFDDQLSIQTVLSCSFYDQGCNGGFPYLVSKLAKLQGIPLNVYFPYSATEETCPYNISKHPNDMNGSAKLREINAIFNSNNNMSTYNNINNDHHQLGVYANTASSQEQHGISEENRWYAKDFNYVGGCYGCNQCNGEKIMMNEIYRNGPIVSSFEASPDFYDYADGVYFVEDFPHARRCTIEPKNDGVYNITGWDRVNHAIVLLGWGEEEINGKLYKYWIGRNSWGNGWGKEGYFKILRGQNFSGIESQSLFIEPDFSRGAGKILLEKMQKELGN
# Test: primary screen, percent inhibition; read by cleavage of a fluorogenic dipeptide substrate; higher = more effect of the substance
# Design: species or system P. falciparum D10 trophozoite lysates; single well
# 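Also: 30 min substrate incubation versus DMSO and 10 µM JCP410 controls.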
row,Compound,% Inhibition @ 10 uM
1,COc1ccc(Nc2ncccc2C(=O)NCCC(C)C)cc1,-6.44%
2,COCCNC(=O)CCc1c(C)nc2c(c(C)nn2C)c1C,-2.45%
3,O=C(c1ccc([N+](=O)[O-])cc1)N1CCc2ccccc21,1.7%
4,CCCN1CCC(N(C)C2CCN(C)CC2)CC1,-5.44%
5,COc1ccc(OC)c(CNc2ncc(-c3cccc(Cl)c3)n2C)c1,0.627%
6,CCOC(=O)CSc1nc(N)c(C#N)c(CC)c1C#N,20.6%
7,CN(C)c1ccc(CN2CCN(Cc3ccc4c(c3)OCO4)CC2)cc1,0.605%
8,Cc1ccc(-c2cc(C(=O)Nc3cccc(F)c3)c3ccccc3n2)o1,13.3%
9,Cc1nc2nc(NC(=O)C3CCCO3)nn2c(O)c1Cc1ccccc1 (stereo not shown),-1.31%
10,Cc1ccccc1Cn1c(C(=O)O)c(CNCc2cccnc2)c2ccccc21,-1.44%
11,Cc1nnc(NCc2cccnc2)c2c1nnn2Cc1ccc(F)cc1,-3.49%
12,c1ccc(-c2ccc(-c3cn4ccsc4n3)cc2)cc1,-0.415%
13,S=C(NC12CC3CC(CC(C3)C1)C2)N1CCCCC1,2.94%
14,Cc1ccc(CCNC(=O)c2cc3c(C)nccc3nc2O)cc1,-2.72%
15,CCOc1ccccc1C(=O)Nc1cccc(C)n1,-3.74%
16,Cn1c(=O)c2c(-c3ccc(C(C)(C)C)cc3)n(-c3ccccn3)cc2n(C)c1=O,5.17%
17,CCC(=O)Nc1cccc(-c2nc3ccccc3[nH]2)c1C,-7.22%
18,O=C(CSc1nc2ccccc2s1)Nc1ncc2c(n1)CC(c1ccco1)CC2=O (stereo not shown),-1.47%
19,COc1ccc(-c2ccc(C#N)c(SCC(=O)NCc3ccccc3)n2)cc1,-0.68%
20,COc1cc(OC)cc(C2=N/C(=C\c3cccs3)C(=O)O2)c1,-6.18%
21,Cc1ccc(C(=O)Nc2ccc(Oc3ccc(NC(=O)c4ccc(C)o4)cc3)cc2)o1,7.12% and -0.884%
22,COC(=O)c1cc(S(=O)(=O)N2CCc3ccccc3C2)cn1C,-2.84%
23,CCn1cc(/C=C(\NC(=O)c2ccccc2OC)C(=O)NC(C)C)c2ccccc21,3.24%
24,COc1ccc(C2C(C#N)=C(N)OC3=C2C(=O)CC(C)(C)C3)cc1 (stereo not shown),-7.96%
25,COc1cccc(CNC(=O)CN2C(=O)CSc3nc(C)cc(C)c32)c1OC,-0.637%
26,CCCO/C(O)=C1\C(C)=NC2=C(C(=O)CCC2)C1c1ccccc1Br (stereo not shown),-3.09%

row,Compound,% Inhibition @ 10 uM
1,COCc1cc(C)nc2sc(C(=O)Nc3cc(Br)cc4cccnc34)c(N)c12,-6.08%
2,Cn1c(=O)c2c(ncn2CC(=O)NCC2CCCO2)n(C)c1=O (stereo not shown),1.58%
3,CCOC(=O)c1c(N2C(=O)C3CC=C(Cl)CC3C2=O)sc2c1CCCC2 (stereo not shown),-1.32%
4,COCCCNC(=O)c1cc2c(C)nc3ccccc3c2o1,4.74%
5,CN1CCC(N(C)C(=O)c2ccccc2F)CC1,3.92%
6,CCCS(=O)(=O)c1nc(S(=O)(=O)c2ccc(C)cc2)c(NCC)s1,-2.25%
7,CCC(C)NC(=O)C1CCN(C(=O)c2ccccc2)CC1 (stereo not shown),-3.67%
8,CC1(C)CC2c3cccc(C(=O)O)c3C(=O)N2Cc2c(Cl)cccc21 (stereo not shown),4.57%
9,Cc1cc(C)c(S(=O)(=O)Nc2cccc(C)c2C)c(C)c1,1.35%
10,O=C(NCc1ccc2c(c1)OCO2)c1ccc(-n2cnc3cccnc32)cc1,-4.21%
11,O=C(CSc1nnc(CNC(=O)c2cccs2)o1)NCc1ccccc1,-7.21%
12,COCc1nc2ccccc2n1C(C)C,1.12%
13,COc1cc(/C=C/C(=O)/C=C/c2cc(OC)c(OC)c(OC)c2)cc(OC)c1OC,-5.62%
14,CC1CCN(S(=O)(=O)c2ccc(NS(C)(=O)=O)cc2)CC1,-1.22%
15,Cc1cc(SCC(=O)NCc2ccco2)nc2ccccc12,-0.0626%
16,N#C/C(=C\c1cccs1)c1nc(-c2ccc(Cl)c(Cl)c2)cs1,1.44%
17,Cc1nc(NCCCO)c2c3c(sc2n1)CCCC3,3.06%
18,CC1CCc2sc(N3C(=O)C4C5C=CC(C5)C4C3=O)c(C#N)c2C1 (stereo not shown),0.851%
19,Cc1ccc(NC(=O)c2cnccn2)cc1C,-5.16%
20,Cc1nc2nc(N3C(=O)c4ccc(C(=O)O)cc4C3=O)nn2c(O)c1Cc1ccccc1,-1.31%
21,Cc1sc(NC(=O)CCC(=O)O)c(C(N)=O)c1-c1ccccc1,-10.6%
22,Cc1ccccc1CNC(=O)C1CCCN(S(=O)(=O)N2CCOCC2)C1 (stereo not shown),0.616%
23,CCCc1ccc(Oc2coc3cc(OC)ccc3c2=O)cc1,1.65%
24,CCOC(=O)C1CCCN(Cc2ccc(F)cc2)C1 (stereo not shown),-0.192%
25,C=CCN1C(=O)c2cccc3c(N4CCOCC4)ccc(c23)C1=O,-4.01%
26,COc1ccc(NC(=O)CS(=O)(=O)Cc2ccccc2)cc1,-1.28%

row,Compound,% Inhibition @ 10 uM
1,CCOc1ccccc1/C=C1/N=C(c2ccccc2C)OC1=O,-2.6%
2,CCn1c(C(=O)NCc2ccccn2)cc2sccc21,-10.5%
3,Nc1ncnc2c1ncn2CCNCc1ccccc1,-3.33%
4,CC1CCN(C2=C(NC3CCCC3)C(=O)c3ccccc3C2=O)CC1,3.35%
5,O=C(NC1CCSC1=O)c1ccc(C(=O)NC2CCSC2=O)cc1 (stereo not shown),3.33%
6,O=C(c1ccc(C2SCC(=O)N2CCc2ccccc2)cc1)N1CCOCC1 (stereo not shown),1.84%
7,COc1ccc(Br)cc1/C=C1\N=C(c2cncc(Br)c2)OC1=O,-5.99%
8,CCOC(=O)N1CCC(N2CCC(C(N)=O)CC2)CC1,-1.5%
9,OCCn1c(SC2CCCCC2)nc2ccccc21,-18.6%
10,COc1ccc(-n2nnnc2C2CCN(S(=O)(=O)c3ccc(Cl)s3)CC2)cc1,1.67%
11,CCOc1ccccc1C(=O)Nc1ccc(S(N)(=O)=O)cc1,-4.59%
12,N#CC1=C(N)NC(SCC(=O)c2ccc(Cl)cc2)=C(C#N)C12CCCC2,11.1%
13,Cc1ccccc1/N=C/c1c(C)nn(-c2ccc(F)cc2)c1O,-2.16%
14,N=C(NOC(=O)CCc1ccccc1)c1ccccc1Cl,0.343%
15,COc1ccc(OC)c(CN2CCN(Cc3cccc(F)c3)CC2)c1,-9.94%
16,O=C(CSc1nnc(-c2ccccc2)n1Cc1ccccc1)NCCc1ccccc1,-10%
17,Cc1ccc(CCN2CC(C(=O)NCCCN(C)Cc3ccccc3)CC2=O)cc1 (stereo not shown),-5.43%
18,CN1N=C2C3CCN(CC3)C2C1c1ccc2c(c1)OCO2 (stereo not shown),0.51%
19,COCCNC(=O)c1c(C)c(-c2cccc(Cl)c2)nc2ccccc12,6.79%
20,CC(NC(=O)Cn1ncc2c3ccccc3n(C)c2c1=O)c1ccc2c(c1)OCCO2 (stereo not shown),4.95%
21,CCOc1c(/C=C2/S/C(=N\c3ccccc3)N(C)C2=O)cccc1OC,1.57%
22,Cc1cc(C2(c3ccc(O)c(C)c3)C(=O)N(Cc3ccccc3)c3ccccc32)ccc1O,-6.68%
23,CCc1c(C)nc(SCC(=O)N2CCc3cc(OC)c(OC)cc3C2)c(C#N)c1C,19.6%
24,O=P(O)(CN1CCCCC1)C1CCCCC1O (stereo not shown),-3.38%
25,CC1(C)CC(=O)C2=C(C1)c1c(ccc3ccccc13)NC2c1ccc(O)c(O)c1 (stereo not shown),2.55%
26,Clc1ccc(CNC2CN3CCC2CC3)cc1 (stereo not shown),1.72%

row,Compound,% Inhibition @ 10 uM
1,O=C(c1cnn2c(C(F)F)cc(-c3ccccc3)nc12)N1CCN(c2ccccn2)CC1,5.65%
2,O=C(NCCc1ccccc1)NCc1cccn1Cc1ccccc1,-6.97%
3,CCNC(=O)CN(c1ccc(C23C[C@H]4C[C@@H](C2)C[C@@H](C3)C4)cc1)S(C)(=O)=O,1.19%
4,Cc1ccc(S(=O)(=O)N(C)c2ccccc2C(=O)N2CCCC2)cc1,7.62%
5,Cc1ccc(OCC(=O)NCC2CCCO2)c(C)c1 (stereo not shown),3.46%
6,CCOc1cc(S(=O)(=O)N2CCOCC2)c(C)cc1C,0.245%
7,Cc1nn(Cc2nnc(S)n2Cc2ccccc2)c(C)c1Cl,-1.1%
8,CCC1C(c2ccccc2)=NNc2nc3c(c(=O)n(C)c(=O)n3C)n21 (stereo not shown),-2.5%
9,CCCSc1nc(=O)c2c(n1C)NC(=O)CC2c1cc(F)ccc1F (stereo not shown),0.596%
10,CCS(=O)(=O)N1CCC(C(=O)NCCCN2CCN(Cc3ccccc3)CC2)CC1,-1.21%
11,COc1ccc2oc3cc(N(C)C)cc(-c4ccc(Cl)cc4)c3c2c1,1.13%
12,CN(CCc1ccccn1)Cc1ccc(Cl)cc1,1.83%
13,O=C(NCCCCc1ccccc1)c1ccccc1Cl,-3.03%
14,CC1C(=O)CC(c2ccccc2)NC1c1ccccc1 (stereo not shown),4.8%
15,Cc1ccc(C2=CC(c3cccc(Br)c3)n3nnnc3N2)cc1C (stereo not shown),3.26%
16,Cc1coc2cc3oc(=O)c(-c4ccccc4)cc3cc12,-2.57%
17,CCN(CC)c1ccc(NC(=O)C2CC2)cc1,9.11%
18,Cc1ccnc(NS(=O)(=O)c2ccc(NC(=O)COc3ccc(Cl)cc3)cc2)n1,-0.132%
19,CC1=CC(C)(C)NC(=S)N1c1cccc(O)c1,3%
20,COc1ccc(CNC2CN3CCC2CC3)cc1OC (stereo not shown),5.03%
21,COc1ccc(-n2nnc(-c3nc(-c4ccncc4)no3)c2N)cc1,2.19%
22,Cc1ccc(CNS(=O)(=O)c2ccc(CN3C(=O)c4cccnc4C3=O)cc2)o1,-4.45%
23,CCOC(=O)c1sc(NC(=O)c2cc(-c3cccc(Cl)c3)on2)c(C(=O)OCC)c1C,-3.12%
24,Cc1ccc2oc3c(c(=O)c2c1)C(c1cccc(O)c1)N(Cc1ccc2c(c1)OCO2)C3=O (stereo not shown),-6.94%
25,COc1cc(NC(=O)/C(=C/c2ccc(C)o2)NC(=O)c2ccccc2)cc(OC)c1,0.777%
